Laboratory results from paper PMC10726135.
Some of the results follow. At the low end of the ranking the order means little. The protein was read in a cell extract, so binding may be indirect.

biological target: T1, HNF4alpha8 (COS-7 nuclear extract) (UniProt P41235-5); assay: protein-binding microarray; details: COS-7 nuclear extract on double-stranded Agilent 4x180k PBM; binding buffer, salt, pH and temperature not given; high values mean tight binding; double strand, one strand shown; sequences stand for … in …GCCTAGGGAGATTAGAGTATCGGTCGA
T1 sequence: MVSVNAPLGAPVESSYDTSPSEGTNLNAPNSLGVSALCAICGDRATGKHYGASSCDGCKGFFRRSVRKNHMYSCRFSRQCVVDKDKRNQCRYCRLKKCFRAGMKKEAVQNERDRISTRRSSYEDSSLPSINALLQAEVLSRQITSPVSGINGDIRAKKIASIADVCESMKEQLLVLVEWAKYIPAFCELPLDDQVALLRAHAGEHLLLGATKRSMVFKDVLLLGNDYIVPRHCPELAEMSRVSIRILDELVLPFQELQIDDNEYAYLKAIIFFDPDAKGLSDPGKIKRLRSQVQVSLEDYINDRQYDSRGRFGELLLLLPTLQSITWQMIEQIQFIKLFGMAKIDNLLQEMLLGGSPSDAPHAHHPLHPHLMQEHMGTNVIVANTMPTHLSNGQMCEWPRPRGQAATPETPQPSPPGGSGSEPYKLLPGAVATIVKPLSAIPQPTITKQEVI

Sequence | binding signal (log2 normalized intensity)
TGTTTGAATTGTGATAATAAATGTGTTTCA | 1.78
TACCTGCCTGAGCTATCTGTTTGAGGTTCA | 1.73
GGCTAAAGATAACCTAGAAAGGAGAGATCA | -1.36
TTATCTTCCTCTGGCATCTGGTCAGGGGTC | 4.13
TACCTTTCCTGCATTAACATCAACATGGAC | 2.03
TTCAATTATTTACTTTAGTTAGAGTCACTG | -0.288
TTGGGCTGTGTTTTGCCCCTGCAGAGTTTT | 2.45
GCATTCCACATTCTCCACTGGGAAGTAGAA | -1.05
GCTTCCAAGGGGAATGTGGATGCTGGAATG | -0.389
AGAGGAAAGATGGGGATATAATCATTCATG | -1.43
TAAAAATGCCTTTCATCTTTGAGAAAACTC | -1.2
CAGGAGTCGGGAGGTAGGGGTGGCGGGTTG | 0.403
AGTTCCAATAGCAAAACCTGATGTTTGGAC | 2.24
AGAGGCCTTTGTGCTGACTAAGAGGAGAAG | -1.42
CTTGTCCTTGACCCTTCCTCCCATTTGCTG | 2.59
GACTGCGCTCCCAGAAGCCTCCGGTGTACC | -0.536
GTGAGTAGGTTAGATAGGAATCTGGATGGC | -1.11
GAGAGTTGCACCCAGGCCGTTGGACCAAGC | 0.782
GCAGAAAGGGCATGGATTTAGATAAGAGGC | -1.16
GTCCCTGGATTGTGTTGCACTGTTTGCATA | 1.14
AAAAGATGGAACAAGCCAGGTGTGCAGAGA | -1.29
ACTCCCTGACGCCATCTGGCGTCCCCCACC | 4.39
TAGCTTTCCCACCAAACCTGAAAAACCTCT | -1.18
TCTTTGCCCCATAACCACCATTAGACTCTG | 2.61

Sequence | binding signal (log2 normalized intensity)
CCTTAGGCGAATGTCAAAGGTCTTTGGTGG | 2.95
TGAGCTGCTTTGGGTGGATTTGGAGATCAG | 0.669
GGCTCACAGAGAGGCTTCTGGCCAGGCAGA | -1.29
CAACACTTAGGGTGGATACTTTGACTGAGA | -0.98
GTTATCTCTGCTGATAGCATAAAGCTAGGA | -1.31
GATCAAAGGTTGGTTTTTGGAGACAGGAGT | 3.24
TAGCATGAACTACACAGATTCTGCAAACCT | -1.22
AGAGGAAGATATTATCTCTGTCTGTCAAGG | 0.709
ATAAAGGGTGAGTGCATGAATCAACTGTTG | 0.0235
CCCTGTCTCTCAGTCTCTGTGGGAGAGTAA | 1.26
CCCATTTTATGGGCTAACGCTGCTGTCTGT | 0.508
TTGAAAGTTTGGTGGACTTTGGCCGTGAAG | 7.64
GCCCTGGTCTCTGCTACCTGTAGCTGAGGG | -1.31
TTGCAAAGCAACTCCTCTGTACAGCTCTTG | -1.29
CCCAGAGCGGCAGCGCCTCCCGGTCACTAC | -1.31
TGAGCCCAATCTAGCAAAAATCCTGCCAAA | -1.12
CAACAGGTGTTAAAATAACGACCTTTGGGC | 6.57
AGGTCACAGTAGGGAAAGTGGGGGGAAAGA | -1.05
TGACAACTGAATGTGACCTTTTGGACCACA | 7.4
TATCTGTCCATCCCTCACTCCTGTCTTACC | 0.0552
CACTGGCTCTGGGGTCAAAGTCCCCTGAGC | 7.66
CTGCAACCTGAGTGCCAGAGCTGTGAAGAC | -1.4
CTTTGCTCTCCCTCCTCTCTGAGCAGTCAA | -1.24
AAGATGTACCATTCATGGACAGCCTTGCCA | -1.22

Sequence | binding signal (log2 normalized intensity)
GGAGCACCACGGTTTATTTTTATCTGTTTA | 0.3
TTCATGTGTGGTGCAGATTCCACACTGGCT | -1.05
GACTTTGATCTTGCTGCTCTCGCCTGGAAG | -1.45
ATTTTCAGCCACCTTTATCTGATCAGAAAT | 0.595
TGACTGGAGCAGAGCGATCAAAGGTCACAG | 7.44
CCAGGTAACTTTTGTCTCTGGAGGGATCAG | 0.587
GTTAGTGCTGCCTCTTCTGGGAAGAGTAGA | -1.29
TATCATCCACATATTTTCCCTATCTAGCCA | -1.22
CTTCTCTGGGAGAAAGGGAGGCAGGTGAGC | -1.34
CAAGAATGCAAAGCCCTGGCTGACCTTTAG | 5.88
ATCAGAGAGTTCAAACTCTGAAGTTGTAAA | 0.953
ACGCCCGGCCAAAGACCACATTCTTTTAGT | -1.15
TGGTTCCATTGTCCTACAGGACATTAATCA | 0.85
AGTTCCTGTGCAAGCCCCTGACCAAGGGTC | 4.15
CCCCTTTGAACTCTGAATAACTGCTTTGTG | 1.7
CAGGCTGCGTTTCAAAGCCAGGACTTTCAG | -1.32
TACAGAATTTCTCAGATGCCAGCTAAGATC | -1.31
TGCATAGCAGAAACATAGAAAGGAGTACAC | -1.35
AAAAACCACAAAAGCCAACAGTACAGCCTT | -1.36
TTCCAGTTACTGGAGGCTGGAGCTCCTGGG | -1.31
AGGCCCTGCATTAAACAAGAGAGAGTCCAC | 2.35
AGAGATCATGGCCGATCGACTAGCGAGGCG | -1.27
ACTTTCAGAGTAACCATGGGGGCTCAGGGC | -1.24
GGCCATTTGGTCTGTAGTGTTGCTCAAGTC | 1.31

Sequence | binding signal (log2 normalized intensity)
TGCTTTTCTAGAACCAGGAATCCTAGGGAA | -1.31
TCTAGAAACCAGTGAGAAAATGGTGACCCT | 4.13
CTAGGAAACTGACCTTTGCTCATGACTATT | 6.61
GCTGATGCAGAGGGTGCAAAGTTTTTAAAG | 1.28
TGATTACCCTTATCTTATCTCCTGCTAAAT | -0.759
TTTACTTCCTTTTGTTCCTGCTCTAACACT | 0.466
TGCCATGATAAGCAGTGTGGACTTTTTCCT | 3.69
ACTGCATGATAGGCCCATCTTCTTATCTGA | 0.173
GGTCAAGTTCAGATCCTGGCCATGCCCCAG | 0.069
CCCTCAGAGCTCAGATGAACTTTGCCTTAG | 6.28
CAAAATCAATAAATCACACGAAACAAGTAG | -1.27
GGAAAACCCGGCGCGGACATAAAATTAAAG | -1.33
CCATGTGCTATTCTGTCTCCTGGAAAGGTT | 1.87
GAAGACAAGACAAGGAAGTTAAGAGTTCGA | -1.37
TTGCCATTTACATCAAACACTCACTGGGAG | -1.34
TGATTGCTGTCTACTCTGGGGGTCAGCAAT | 3.23
AGCAGAAAATCCAGGTGCAGTGTGAGAGGA | -1.24
GTGACTCACCTTTGCTCTGATCTTTGACTT | 4.15
TCTCTCTTAAGAACGCTTGTGATTACACTG | -1.13
CCCCACCCCACCCCACTCCACCTACGCTAC | 5.33
CAATCCAGAAGGCGCTGAACTTTGCCTTGT | 5.04
